{
  "source": "the supplement of paper PMC8728848",
  "binders": {"B1": {"name": "PX14343B-bfa-546-20-546 (Bacteroides fragilis) (protein)", "chain": "CDLERYPLTDLSEETFWNSESNAELALTSLYRGSLTDGVEYNPSDWWSYHGMIMMEHLSDNAFDRRGENNPFFKISSGNLTADNAFIKRYWETSYKRIGYCNRFLVGIQNSSESEKKTRMIAEARFLRATQYFYLASYFKNVPLVENVLTGEEANNVTKTSQADILKWCVTEFTAAAADLPRFSAIPAGEAGRACKQAALAFLGRTCMLQKDWKSGAKAFHDIMELGDNAINANYQELFYPSTGTSNKENIFYIQYLENYLGTGLPQHALSAKDGGWSLVNPAADLYESYEFKDGTPFSYDDPRYDPSNLGKDRDPRLDYTIYYNGAIFMGTEYKMSPDYSAAKKEKLDYTSEASRTGFMMRKYFEESTPINDVQSANGLTPVIRYAEVLLGYLECLVEDNQTITQGILDETINAVRGRASVNMPPVTEVTPAKLREIVRHERRIELAMEGIRYWDIMRWGIAHEVLSQKIWGAPYPGSTQYATTTKEVDPTGNYRWYVGKRAFRNPTDYTWPIPQSEQNINPNLRD"}},
  "assay_in_all_cases": "glycan array binding signal (z-score within array); higher = stronger binding",
  "conditions_in_all_cases": "glycan notation: IUPAC condensed, linker removed",
  "key": {"[1]": {"molecular_target": "Gal(a1-3)Gal(b1-4)GlcNAc(b1-2)Man", "method_in_brief": "(§1)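 Negative Z-scores can be read as non-binding. The Z-score is calculated within each array and then averaged across arrays of one protein sequence at different concentrations or buffers and across linkers. Arrays, 3228 in all, were curated from the Consortium for Functional Glycomics database and kept only where the protein sequence was available.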"}, "[2]": {"molecular_target": "Gal(a1-3)Gal(b1-4)GlcNAc(b1-2)Man(a1-3)[Gal(a1-3)Gal(b1-4)GlcNAc(b1-2)Man(a1-6)]Man(b1-4)GlcNAc(b1-4)GlcNAc", "method_in_brief": "as §1"}, "[3]": {"molecular_target": "Gal(a1-3)Gal(b1-4)GlcNAc(b1-3)GalNAc", "method_in_brief": "as §1"}, "[4]": {"molecular_target": "Gal(a1-3)Gal(b1-4)GlcNAc(b1-6)GalNAc", "method_in_brief": "as §1"}, "[5]": {"molecular_target": "Gal(a1-3)Gal(b1-4)[Fuc(a1-3)]GlcNAc", "method_in_brief": "as §1"}, "[6]": {"molecular_target": "Gal(a1-3)Gal(b1-4)[Fuc(a1-3)]GlcNAc(b1-2)Man(a1-3)[Gal(a1-3)Gal(b1-4)[Fuc(a1-3)]GlcNAc(b1-2)Man(a1-6)]Man(b1-4)GlcNAc(b1-4)GlcNAc", "method_in_brief": "as §1"}, "Gal(a1-3)GalNAc": {"molecular_target": "Gal(a1-3)GalNAc", "method_in_brief": "as §1"}, "[7]": {"molecular_target": "Gal(a1-3)[Gal(a1-4)]Gal(b1-4)GlcNAc", "method_in_brief": "as §1"}, "[8]": {"molecular_target": "Gal(a1-4)Gal(b1-3)GlcNAc(b1-2)Man(a1-3)[Gal(a1-4)Gal(b1-3)GlcNAc(b1-2)Man(a1-6)]Man(b1-4)GlcNAc(b1-4)GlcNAc", "method_in_brief": "as §1"}, "Gal(a1-4)Gal(b1-4)Glc": {"molecular_target": "Gal(a1-4)Gal(b1-4)Glc", "method_in_brief": "as §1"}, "Gal(a1-4)Gal(b1-4)GlcNAc": {"molecular_target": "Gal(a1-4)Gal(b1-4)GlcNAc", "method_in_brief": "as §1"}, "[9]": {"molecular_target": "Gal(a1-4)Gal(b1-4)GlcNAc(b1-2)Man(a1-3)[Gal(a1-4)Gal(b1-4)GlcNAc(b1-2)Man(a1-6)]Man(b1-4)GlcNAc(b1-4)GlcNAc", "method_in_brief": "as §1"}, "[10]": {"molecular_target": "Gal(a1-4)Gal(b1-4)GlcNAc(b1-3)Gal(b1-4)Glc", "method_in_brief": "as §1"}, "Gal(a1-4)GlcNAc": {"molecular_target": "Gal(a1-4)GlcNAc", "method_in_brief": "as §1"}, "Gal(a1-6)Glc": {"molecular_target": "Gal(a1-6)Glc", "method_in_brief": "as §1"}, "Gal(b1-2)Gal": {"molecular_target": "Gal(b1-2)Gal", "method_in_brief": "as §1"}, "Gal(b1-3)Gal": {"molecular_target": "Gal(b1-3)Gal", "method_in_brief": "as §1"}, "Gal(b1-3)Gal(b1-4)GlcNAc": {"molecular_target": "Gal(b1-3)Gal(b1-4)GlcNAc", "method_in_brief": "as §1"}, "Gal(b1-3)GalNAc": {"molecular_target": "Gal(b1-3)GalNAc", "method_in_brief": "as §1"}, "[11]": {"molecular_target": "Gal(b1-3)GalNAc(a1-3)[Fuc(a1-2)]Gal(b1-4)Glc", "method_in_brief": "as §1"}, "[12]": {"molecular_target": "Gal(b1-3)GalNAc(a1-3)[Fuc(a1-2)]Gal(b1-4)GlcNAc", "method_in_brief": "as §1"}, "Gal(b1-3)GalNAc(b1-3)Gal": {"molecular_target": "Gal(b1-3)GalNAc(b1-3)Gal", "method_in_brief": "as §1"}, "[13]": {"molecular_target": "Gal(b1-3)GalNAc(b1-3)Gal(a1-4)Gal(b1-4)Glc", "method_in_brief": "as §1"}, "[14]": {"molecular_target": "Gal(b1-3)GalNAc(b1-4)Gal(b1-4)Glc", "method_in_brief": "as §1"}, "[15]": {"molecular_target": "Gal(b1-3)GalNAc(b1-4)[Neu5Ac(a2-3)]Gal(b1-4)Glc", "method_in_brief": "as §1"}, "Gal(b1-3)GlcNAc": {"molecular_target": "Gal(b1-3)GlcNAc", "method_in_brief": "as §1"}, "[16]": {"molecular_target": "Gal(b1-3)GlcNAc(a1-3)Gal(b1-4)GlcNAc", "method_in_brief": "as §1"}, "[17]": {"molecular_target": "Gal(b1-3)GlcNAc(a1-6)Gal(b1-4)GlcNAc", "method_in_brief": "as §1"}, "Gal(b1-3)GlcNAc(b1-2)Man": {"molecular_target": "Gal(b1-3)GlcNAc(b1-2)Man", "method_in_brief": "as §1"}, "[18]": {"molecular_target": "Gal(b1-3)GlcNAc(b1-2)Man(a1-3)[Gal(b1-3)GlcNAc(b1-2)Man(a1-6)]Man(b1-4)GlcNAc(b1-4)GlcNAc", "method_in_brief": "as §1"}, "[19]": {"molecular_target": "Gal(b1-3)GlcNAc(b1-2)Man(a1-3)[Gal(b1-3)GlcNAc(b1-2)Man(a1-6)]Man(b1-4)GlcNAc(b1-4)[Fuc(a1-6)]GlcNAc", "method_in_brief": "as §1"}, "[20]": {"molecular_target": "Gal(b1-3)GlcNAc(b1-2)Man(a1-3)[GlcNAc(b1-4)][Gal(b1-3)GlcNAc(b1-2)Man(a1-6)]Man(b1-4)GlcNAc(b1-4)GlcNAc", "method_in_brief": "as §1"}, "[21]": {"molecular_target": "Gal(b1-3)GlcNAc(b1-2)[Gal(b1-3)GlcNAc(b1-6)]Man(a1-6)[Gal(b1-3)GlcNAc(b1-2)Man(a1-3)]Man(b1-4)GlcNAc(b1-4)GlcNAc", "method_in_brief": "as §1"}, "[22]": {"molecular_target": "Gal(b1-3)GlcNAc(b1-3)Gal(b1-3)GlcNAc", "method_in_brief": "as §1"}, "[23]": {"molecular_target": "Gal(b1-3)GlcNAc(b1-3)Gal(b1-4)Glc", "method_in_brief": "as §1"}, "[24]": {"molecular_target": "Gal(b1-3)GlcNAc(b1-3)Gal(b1-4)GlcNAc", "method_in_brief": "as §1"}, "[25]": {"molecular_target": "Gal(b1-3)GlcNAc(b1-3)Gal(b1-4)GlcNAc(b1-2)Man(a1-3)[Gal(b1-3)GlcNAc(b1-3)Gal(b1-4)GlcNAc(b1-2)Man(a1-6)]Man(b1-4)GlcNAc(b1-4)GlcNAc", "method_in_brief": "as §1"}},
  "note": "The other results are listed elsewhere or left out.",
  "data": [
    {"binder": "B1", "values": [
      {"measurement": "glycan array binding signal (z-score)", "setting": "[1]", "value": -0.086},
      {"measurement": "glycan array binding signal (z-score)", "setting": "[2]", "value": -0.105},
      {"measurement": "glycan array binding signal (z-score)", "setting": "[3]", "value": -0.122},
      {"measurement": "glycan array binding signal (z-score)", "setting": "[4]", "value": -0.107},
      {"measurement": "glycan array binding signal (z-score)", "setting": "[5]", "value": -0.129},
      {"measurement": "glycan array binding signal (z-score)", "setting": "[6]", "value": -0.101},
      {"measurement": "glycan array binding signal (z-score)", "setting": "Gal(a1-3)GalNAc", "value": -0.118},
      {"measurement": "glycan array binding signal (z-score)", "setting": "[7]", "value": -0.118},
      {"measurement": "glycan array binding signal (z-score)", "setting": "[8]", "value": -0.115},
      {"measurement": "glycan array binding signal (z-score)", "setting": "Gal(a1-4)Gal(b1-4)Glc", "value": -0.109},
      {"measurement": "glycan array binding signal (z-score)", "setting": "Gal(a1-4)Gal(b1-4)GlcNAc", "value": -0.12},
      {"measurement": "glycan array binding signal (z-score)", "setting": "[9]", "value": -0.115},
      {"measurement": "glycan array binding signal (z-score)", "setting": "[10]", "value": -0.128},
      {"measurement": "glycan array binding signal (z-score)", "setting": "Gal(a1-4)GlcNAc", "value": -0.12},
      {"measurement": "glycan array binding signal (z-score)", "setting": "Gal(a1-6)Glc", "value": -0.127},
      {"measurement": "glycan array binding signal (z-score)", "setting": "Gal(b1-2)Gal", "value": -0.114},
      {"measurement": "glycan array binding signal (z-score)", "setting": "Gal(b1-3)Gal", "value": -0.113},
      {"measurement": "glycan array binding signal (z-score)", "setting": "Gal(b1-3)Gal(b1-4)GlcNAc", "value": -0.113},
      {"measurement": "glycan array binding signal (z-score)", "setting": "Gal(b1-3)GalNAc", "value": -0.127},
      {"measurement": "glycan array binding signal (z-score)", "setting": "[11]", "value": -0.122},
      {"measurement": "glycan array binding signal (z-score)", "setting": "[12]", "value": -0.121},
      {"measurement": "glycan array binding signal (z-score)", "setting": "Gal(b1-3)GalNAc(b1-3)Gal", "value": -0.126},
      {"measurement": "glycan array binding signal (z-score)", "setting": "[13]", "value": -0.126},
      {"measurement": "glycan array binding signal (z-score)", "setting": "[14]", "value": -0.115},
      {"measurement": "glycan array binding signal (z-score)", "setting": "[15]", "value": -0.115},
      {"measurement": "glycan array binding signal (z-score)", "setting": "Gal(b1-3)GlcNAc", "value": -0.115},
      {"measurement": "glycan array binding signal (z-score)", "setting": "[16]", "value": -0.129},
      {"measurement": "glycan array binding signal (z-score)", "setting": "[17]", "value": -0.121},
      {"measurement": "glycan array binding signal (z-score)", "setting": "Gal(b1-3)GlcNAc(b1-2)Man", "value": -0.12},
      {"measurement": "glycan array binding signal (z-score)", "setting": "[18]", "value": -0.106},
      {"measurement": "glycan array binding signal (z-score)", "setting": "[19]", "value": -0.115},
      {"measurement": "glycan array binding signal (z-score)", "setting": "[20]", "value": -0.122},
      {"measurement": "glycan array binding signal (z-score)", "setting": "[21]", "value": -0.117},
      {"measurement": "glycan array binding signal (z-score)", "setting": "[22]", "value": -0.124},
      {"measurement": "glycan array binding signal (z-score)", "setting": "[23]", "value": -0.119},
      {"measurement": "glycan array binding signal (z-score)", "setting": "[24]", "value": -0.123},
      {"measurement": "glycan array binding signal (z-score)", "setting": "[25]", "value": -0.127}
    ]}
  ]
}
